Drawing on PubChem BioAssay AID1346428 (National Center for Advancing Translational Sciences (NCATS), 2018), this text covers activation for 84 compounds.

The structures appear in SMILES notation. In all, about 48,000 compounds went through this assay and about 1,200 (2.5%) were called active. About 2% were inconclusive and are not listed.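 Rule for the calls: active = activation of at least 60% and not above a set upper limit (about 1 call in 100 departs from these limits); inconclusive = activation of 40% to 60%, or above that upper limit; inactive = activation under 40%.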 Some of the results follow.

Chain of UniProt O75388 (O75388 whole entry, looked up, the tested form may be a part): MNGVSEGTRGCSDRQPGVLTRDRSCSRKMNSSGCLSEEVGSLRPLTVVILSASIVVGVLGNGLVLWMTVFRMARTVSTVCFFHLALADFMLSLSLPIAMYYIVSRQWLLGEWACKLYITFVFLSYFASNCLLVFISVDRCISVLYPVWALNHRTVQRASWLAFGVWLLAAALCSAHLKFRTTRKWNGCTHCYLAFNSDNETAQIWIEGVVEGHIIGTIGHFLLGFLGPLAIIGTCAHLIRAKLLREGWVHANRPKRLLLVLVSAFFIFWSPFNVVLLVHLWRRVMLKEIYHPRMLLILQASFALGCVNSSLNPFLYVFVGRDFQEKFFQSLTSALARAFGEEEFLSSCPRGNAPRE

The target of this experiment is Probable G-protein coupled receptor 32 (Homo sapiens) (UniProt O75388). Put plainly: qHTS for Agonists of Human Resolvin D1 Receptor DRV1. Note: 0% is about no effect. The note with it: CHO-K1 GPR32 beta-arrestin PathHunter luminescence, 90 min; at 76.9 µM; hits give high values; zero percent set by DMSO-only wells. The essentials:
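Agonism was scored by beta-Gal fragment complementation (chemiluminescent read, 1 h detection at ambient temperature) reporting beta-arrestin binding to GPR32 in engineered CHO-K1 cells. Compound treatment lasted 90 min at 37 C, normalized to a DMSO basal control.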
As to `CN1CC[C@H](c2c(O)cc(O)c3c(=O)cc(-c4ccccc4Cl)oc23)[C@H](O)C1`, the activation is inactive: -16.5%.
The figure for `CCOC(=O)C1=C(CN2CCCCC2)NC(=O)NC1c1cc(C)ccc1C` (centres undefined) is inactive: -5.7%; for `CCn1cc(C(=O)N2CCN(c3ccc(F)cc3)CC2)c(=O)c2cc(S(=O)(=O)N(C)C3CCCCC3)ccc21` it is inactive: 2.18%.
As to `CCc1cccc(NC(=O)C2CCCN(S(=O)(=O)c3cccs3)C2)c1` (centres undefined), the activation is inactive: -1.45%.
The figure for `CC(C)(C)c1ccc(OCCn2cc(C(=O)c3ccco3)c3ccccc32)cc1` is inactive: 14%.
The figure for `COc1ccccc1N1CCN(C(CNC(=O)C(=O)NCc2ccc(C)cc2)c2cccnc2)CC1` (centres undefined) is inactive: 26.7%.
As for `CCOC(=O)c1ccc(NC(=O)c2oc(=O)c3ccccc3c2-c2ccccc2)cc1`, the figure is inactive: -11.2%; as for `Cc1cccc(Cn2c(=O)n(CC3CCC(C(=O)N4CCOCC4)CC3)c(=O)c3sccc32)c1` (centres undefined), inactive: -3.61%.
On to `O=C(NCc1cccs1)c1ccc(Cn2c(SCc3cccc(F)c3)nc3cccnc32)cc1`, for which the activation is inactive: -21.5%.
The figure for `CCCCOC(=O)c1ccc(NC(=O)Cn2nnc3sc4c(c3c2=O)CCCC4)cc1` is inactive: -17.2%; for `CCc1cccc(NC(=O)C(Cc2ccccc2)NS(=O)(=O)c2ccc3c(c2)oc(=O)n3C)c1` (centres undefined) it is inactive: -5.84%; for `CCOC(=O)c1c(NC(=O)c2cc3nc(-c4ccc(OC)cc4)cc(C(F)(F)F)n3n2)sc2c1CCC(C)C2` (centres undefined) it is inactive: -12.7%.
The figure for `CCC(=O)N1CCc2cc(S(=O)(=O)CCC(=O)NCc3ccc(C)cc3)ccc21` is inactive: 10.7%.
As for `COc1ccccc1-c1nc2c(c(SCC(=O)Nc3c(C)cc(C)cc3C)n1)Cc1c(CO)cnc(C)c1O2`, the figure is inactive: -9.64%.
In the case of `CCOc1ccc(-c2cc(C(=O)N3CCN(S(=O)(=O)c4cc(Cl)ccc4OC)CC3)[nH]n2)cc1`, the activation is inactive: -0.298%.
`CCOc1ccc(CCNC(=O)c2ccc(Nc3nc4ccccc4n4nnnc34)cc2)cc1OCC`: the activation was inactive: -10.2%.
For the compound `Cc1ccc(N2C(=O)N(CC(=O)C(C)(C)C)c3ccccc3S2(=O)=O)cc1C`, the activation is inactive: -5.76%.
The figure for `CCc1cccc(NC(=O)c2cc3c(=O)n(Cc4ccc(OC)cc4)ccc3nc2C)c1` is inactive: -24.9%.
The figure for `CCCSc1nnc2c(n1)OC(c1sccc1C)Nc1ccccc1-2` (centres undefined) is inactive: -8.49%.
On to `Cc1c(Cl)cccc1NC(=O)CN1C(=O)COc2ccc(S(=O)(=O)N3CCOCC3)cc21`, for which the activation is inactive: -16.3%.
As for `Cc1cc2oc(C(=O)N(Cc3ccccc3F)C3CCS(=O)(=O)C3)c(C)c2cc1Cl` (centres undefined), the figure is inactive: -30.6%.
The figure for `CCOC(=O)c1ccc(NC(=O)c2c(N3CCCC3=O)c3cc(OC)ccc3n2C)cc1` is inactive: 1.66%; for `Cc1ccc(C)c(N2CCN(C(=O)Cn3ncc4ccsc4c3=O)CC2)c1` it is inactive: 45.6%; for `CCOc1ccc(C(=O)c2oc3ccccc3c2NC(=O)Cc2coc3cc(C)cc(C)c23)cc1` it is inactive: 3.23%.
As for `CCc1ccc(Cn2c(CNS(=O)(=O)c3ccc(F)c(Cl)c3)nc3cccnc32)cc1`, the figure is inactive: -17.8%; as for `CC(=O)N1CCCC1c1nc2ccccc2n1Cc1ccccc1` (centres undefined), inactive: -7.15%; as for `CC1=C(C(=O)OCC2CCCCC2)C(c2cccc(Cl)c2Cl)CC(=O)N1` (centres undefined), inactive: 13.4%.
As to `Cc1cc(Br)ccc1NC(=O)C1CCN(S(=O)(=O)c2cccc3nsnc23)CC1`, the activation is inactive: 0.106%.
As for `Cc1ccccc1-c1nnc(CN2CCN(c3ccccn3)CC2)o1`, the activation was inactive: 11.8%.
As for `COc1ccc(-c2noc(-c3ccc(N4CCN(C)CC4)c([N+](=O)[O-])c3)n2)cc1OC`, the figure is inactive: -4.48%; as for `COCCCNC(=O)C(=O)Nc1c2c(nn1-c1cccc(Cl)c1)CSC2`, inactive: -49.7%.
As for `CCOC(=O)c1ccc(NC(=O)N2CCOc3ccccc32)cc1`, the figure is inactive: -19.4%.
Consider `CCOc1ccc(CCNC(=O)c2cnc3sc(N4CCC(C)CC4)nn3c2=O)cc1`, for which the activation is inactive: -5.5%.
Take `COC(=O)c1c(-c2cccs2)csc1NC(=O)COc1c(C)ccc(C)c1C`: the activation was inactive: -14.1%.
The figure for `CNC(=O)Cn1cc(S(=O)(=O)Cc2ccccc2F)c2ccccc21` is inactive: -0.492%; for `CCOc1ccccc1NC(=O)N1CCc2cc(S(=O)(=O)N3CCC(C)CC3)ccc21` it is inactive: -16.4%; for `COc1ccc(-c2oc3ncn4nc(COc5c(C)cccc5C)nc4c3c2-c2ccc(OC)cc2)cc1` it is inactive: -12.4%.
As for `Cc1nn(C(=O)c2ccccc2F)c(C)c1S(=O)(=O)N1CCCCCC1`, the figure is inactive: 5.01%.
As to `CCCCCSc1nc2sc3c(c2c(=O)n1-c1ccccc1)CCN(C(C)=O)C3`, the activation is inactive: 19.8%.
The figure for `Cc1ccc(Cn2c(SCc3ccc(C(=O)N4CCCCCC4)cc3)nc3ccncc32)cc1` is inactive: -5.91%; for `Cc1cccc(NC(=O)c2sc(-n3nc(C)c(Cc4ccc5c(c4)OCO5)c3C)nc2C)c1C` it is inactive: -13.9%.
In the case of `COc1ccc(-c2noc(Cn3c(=O)c4ccccc4n(CC(=O)Nc4cccc(OC)c4)c3=O)n2)cc1`, the activation was inactive: -8.21%.
As for `COc1ccc(CN2CCc3nc(SCC(=O)Nc4cc(C)cc(C)c4)[nH]c(=O)c3C2)cc1`, the figure is inactive: 22.7%; as for `COc1cc(OC)cc(N2C(=O)N(CC(=O)c3ccc(F)cc3)c3ccccc3S2(=O)=O)c1`, inactive: -9.39%; as for `COc1cccc(NC(=O)N2CCN3CCCCC3C2)c1` (centres undefined), inactive: -6.69%.
As for `CCCOC(=O)CSc1ncnc2sc3c(c12)CCC(C)C3` (centres undefined), the figure is inactive: -4.39%; as for `COc1ccc(-c2cc(C)no2)cc1S(=O)(=O)NC(C)C`, inactive: -12.6%.
The figure for `Cc1ccc(NC(=O)CSc2ncc3c(n2)-c2ccc(Cl)cc2N(C)S3(=O)=O)cc1F` is inactive: 8.17%; for `Nc1nc(Cl)nc2c1ncn2[C@@H]1O[C@H](CO)[C@@H](O)[C@@H]1F` it is inactive: 4.65%; for `COc1ccc(-c2noc(CSc3nnc(C)n3-c3ccc(OC)cc3)n2)cc1` it is inactive: 3.99%.
For the compound `Cn1nnnc1SCCCNCc1ccccc1OCc1ccccc1Cl`, the activation was inactive: 25.4%.
The figure for `COc1ccccc1NC(=O)c1sc2nc(N3CCOCC3)c3c(c2c1N)CC(C)(C)OC3` is inactive: -7.15%; for `CC(C)c1ccc(NC(=O)c2ccc(F)c(S(=O)(=O)N3CCCCCC3)c2)cc1` it is inactive: 3.29%; for `COc1ccc(S(=O)(=O)NCCc2csc3nc(-c4ccc(OC)c(OC)c4)nn23)cc1C` it is inactive: -15%.
As for `CCc1ccccc1NC(=O)C1CCN(S(=O)(=O)c2ccc3[nH]c(=O)ccc3c2)CC1`, the figure is inactive: 2.81%.
As for `CCCCn1c(=O)c2oc3ccccc3c2n(CC(=O)Nc2cccc(Cl)c2C)c1=O`, the activation was inactive: -6.77%.
As for `CC(C)(C)c1ccc(C(=O)Nc2cc(-c3nc4ccccc4o3)ccc2Cl)cc1`, the figure is inactive: 17.1%; as for `CCc1ccccc1NC(=O)c1ccc2c(c1)CCN2S(C)(=O)=O`, inactive: -24.7%.
`COc1cc(NC(=O)c2sc3nc4n(c(=O)c3c2C)CCCCC4)cc(OC)c1OC`: the activation was inactive: 2.5%.
As for `Cc1noc(C)c1S(=O)(=O)N1CCC(C(=O)Nc2ccc(Br)cc2)CC1`, the figure is inactive: 5.29%; as for `COc1ccc(CNC(=O)c2nc(Cn3nc(C)c(Br)c3C)no2)cc1OC`, inactive: 42.5%; as for `CCN(C(=O)c1cc2cc3ccc(OC)cc3nc2o1)c1cccc(C)c1`, inactive: 42.3%.
Turning to `COc1ccc(CCNC(=O)C(=O)Nc2ccc(C)cc2)cc1OC`, the activation is inactive: 0.549%.
Take `COc1ccc(N2CCN(S(=O)(=O)c3c(C)[nH]c(=O)[nH]c3=O)CC2)cc1`: the activation was inactive: 3.15%.
The figure for `Cc1ccc(C)c(NC(=O)CSc2nc(-c3ccccc3)cc(=O)[nH]2)c1` is inactive: -4.82%.
As for `COc1ccc(-c2nc(C(=O)Nc3ccc(C(C)=O)cc3)nn2-c2cccc(Cl)c2)cc1`, the figure is inactive: -0.388%; as for `CC(=O)c1ccc(Oc2nc(C)nc3c2oc2ccccc23)cc1`, inactive: 4.08%; as for `Oc1c(C(c2ccc(F)cc2)N2CCOCC2)sc2nc(-c3ccco3)nn12` (centres undefined), inactive: 47.3%.
The figure for `O=C(Cn1ncc2c([nH]c3ccccc32)c1=O)Nc1cccc(C(F)(F)F)c1` is inactive: -1.57%.
With `CC(=O)N1CCc2cc(S(=O)(=O)NC(Cc3ccccc3)C(=O)Nc3cccc(C)c3)ccc21` (centres undefined), the activation was inactive: -6.89%.
The figure for `Cc1cc(C)cc(N2CC(c3nc(-c4cccc(Cl)c4)no3)CC2=O)c1` (centres undefined) is inactive: -19.1%.
`Cc1ccc(CNCc2ccccc2)s1`: the activation is inactive: -3.76%.
As for `CCc1ccc(-n2c(=O)c3c4c(sc3n(Cc3ccc(C)cc3)c2=O)CCC4)cc1`, the figure is inactive: -11.4%; as for `O=C1C(Nc2ccccc2)=CC(c2ccc(Br)cc2)N1c1ccccc1` (centres undefined), inactive: -24.3%.
On to `Cc1ccccc1CN1c2ccccc2S(=O)(=O)c2ccccc21`, for which the activation is inactive: 11.4%.
As for `COc1ccc(N2CCN(C(CNC(=O)C(=O)NCCc3ccccc3)c3cccnc3)CC2)cc1` (centres undefined), the figure is inactive: -3.7%; as for `O=C(NCc1ccccc1)c1ccc2nc(CCc3ccccc3)oc2c1`, inactive: 18.7%.
As for `Cc1ccc(CCNC(=O)NCc2noc3ccccc23)cc1`, the figure is inactive: -13.2%; as for `Cc1ccc(CN2CCC(CNC(=O)Nc3cccc(Cl)c3C)C2)cc1` (centres undefined), inactive: 0%.
For the compound `COc1ccc(C)cc1NC(=O)NCc1cccn1Cc1ccccc1`, the activation was inactive: -16%.
For `COc1ccccc1NC(=O)CN(C)S(=O)(=O)c1ccc2c(c1)c(=O)n(C)c(=O)n2C`, the activation was inactive: -0.627%.
The figure for `CCOCCCN(C(=O)Nc1ccc(Cl)cc1)C1CCN(C(C)=O)CC1` is inactive: -9.89%; for `Cc1c(CNC2CCCCCC2)c(C(=O)O)c(C)n1Cc1ccc(F)cc1Cl` it is inactive: -7.64%.
The figure for `O=C(COc1ccc(Cl)cc1)Nc1nnc2n1CCS2` is inactive: 14%.
